Reference: the supplement of paper PMC10338343
± gives the standard deviation. Only a part is listed here, and it is no random draw.

System: MIWI (PIWIL1) piRISC loaded with L1MC piRNA (30 nt)
Assay: pre-steady-state target cleavage rate (min^-1); MIWI and MILI are mouse PIWI proteins and EfPiwi is from a freshwater sponge; tags in brackets are library labels; higher = faster piRNA-guided slicing of the target
Conditions: guide: L1MC piRNA 5'p-UAACUAAAUACUAUGCAAGCUGUAGGUCCU
Method in brief: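 Using HEPES–potassium acetate buffer at 33 °C, 1 nM active affinity-purified piRISC with a single synthetic guide was mixed with 0.1 nM transcribed, DNA-blocked target RNA library for 0–8 or 0–960 min, with or without 500 nM GTSF1 partner protein. Uncleaved targets were sequenced and normalised to depth and to weakly complementary targets, and three trials were pooled with k3 capped at 0.0001 min^-1. A burst-and-steady-state fit gave the pre-steady-state cleavage rate.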

[1] = auxiliary factor: 500 nM mouse GTSF1
[2] = auxiliary factor: none (no GTSF1)

Sequence	pre-steady-state target cleavage rate [1]	pre-steady-state target cleavage rate [2]
UCCUGGAUGAGCUAGCAUAGUAUUUAGUAA	0.332 ± 0.029	0.00644 ± 0.0029
UCCUGGAUGUCUUUGCAUAGUAUUUAGUUA	0.094 ± 0.015	0.00574 ± 0.0019
UCCUCCUACACCUUGGAUAGUAUUUAGUUA	0.502 ± 0.071	0.0248 ± 0.004
UCCUCCUACAGCUUGCAUAGUUAUUUAGUUA	0.0773 ± 0.015	0.00479 ± 0.0018
AGGACCUACAGCUUGCAUAGUAAUAAGUUA	0.488 ± 0.052	0.00534 ± 0.0028
AGGACCUACAGCUUGCAUAGUAUUUCGUUA	0.68 ± 0.071	0.0542 ± 0.011
UCCUGGUACAGGUUGCAUAGAAUUUAGUUA	0.302 ± 0.052	0.0108 ± 0.0039
UCCUUCUACAGCUUGCAUAGUAUUUAGUUA	1.02 ± 0.033	0.0527 ± 0.0083
UCCUGGAUGUCGAACGUAUGUUAAUAGUUA	< 0.0001	< 0.0001
UCCUGGAUGAGCUAGCAUUGUAUUUAGUUA	0.095 ± 0.012	0.00615 ± 0.0028
UCCUCCAUCAGCUUGCAUAGUAUUUAGUUA	0.739 ± 0.027	0.0679 ± 0.013
UCCUCCUACAGCUUGCAUAGUAUUUAGGUUA	0.442 ± 0.055	0.0235 ± 0.0058
UCCUGGAACAGCUUGAUAGUAUUUAGUUA	0.377 ± 0.032	0.00679 ± 0.0028
UCCUGGAUGAGCUUCGCAUAGUAUUUAGUUA	0.495 ± 0.047	0.0124 ± 0.0037
UCCUGGAUGAGCUUGGAUAGAAUUUAGUUA	0.0997 ± 0.029	0.0213 ± 0.0075
UCCUGGUACAGCUUCAUAGUAUUUAGUUA	0.634 ± 0.072	0.00885 ± 0.0023
AGGGCCUACAGCUUGCAUAGUAUUUAGUUA	1.39 ± 0.061	0.106 ± 0.023
UCCUGGAUGUCGUUGCAUAGUAUUGAGUUA	0.021 ± 0.0062	0.00394 ± 0.0025
UGGACCUACAGCAUGCAUAGUAAUUAGUUA	0.869 ± 0.063	0.0128 ± 0.0043
AGGUCCUACAGCUAGCAUAGUAUUUAGUUA	0.743 ± 0.025	0.0611 ± 0.014
AGGACCUACUCCUUGCAUAGUAUUUAGAAA	0.381 ± 0.052	0.0124 ± 0.0034
UCCACCUACAGGUUGCAUAGUAUUUAGUUA	0.961 ± 0.13	0.0211 ± 0.0033
UCCUCGUUCAGCUUGCAUAGUAUUUAGUUA	1.4 ± 0.041	0.0653 ± 0.014
AGGACCAACUGCUUGCAUAGUAUUUAGUUA	1.22 ± 0.056	0.0799 ± 0.014
UCCUGGAUGAGCUUGCAUAGAAUUUAGUAA	0.263 ± 0.044	0.00788 ± 0.0033
UGGACCUACUGCUUGCAUAGUAUUUAGAAA	0.14 ± 0.014	0.0121 ± 0.0024
UCCUGCUACAGCUUGGAUAGUAUAUAGUUA	0.448 ± 0.041	0.0171 ± 0.0042
AGGACCUACAGCUUGCAUAGUUAUUAGUAA	0.225 ± 0.041	0.00977 ± 0.0039

Sequence	pre-steady-state target cleavage rate [1]	pre-steady-state target cleavage rate [2]
UCCACCUACAGCUUGCAUAGAUUUUAGUUA	0.144 ± 0.018	0.00423 ± 0.002
UCCUGGUACAGCUUGGAUAGUAUUUACUUA	0.0106 ± 0.0064	0.00411 ± 0.0029
UCCUGGAACAGCUUGCAUAGUAUUUUAGUUA	0.875 ± 0.046	0.0159 ± 0.003
UGGAGCUACAGCUUGCAUAGUAUUUAGUUA	1.25 ± 0.045	0.0783 ± 0.012
UCGACCUUGAGCUUGCAUAGUAUUUAGUUA	0.789 ± 0.057	0.0478 ± 0.0086
UCCUGGUACAGCUUGCAAUGUAUUUAGUUA	0.279 ± 0.02	0.0101 ± 0.0036
UCCUCCUACAGCUUGCAUAGUAUUUAGUA	0.442 ± 0.034	0.00753 ± 0.0027
ACGUCCUACAGCUUGCAUAGUAUUUAGUUA	1.52 ± 0.055	0.0835 ± 0.013
UGGACCUUCAGCUUGCUUAGUAUUUAGUUA	1.49 ± 0.09	0.0441 ± 0.011
UCGACCUACAGCUUGCAUAGUUUAUAGUUA	0.192 ± 0.025	0.0113 ± 0.0034
UCCUGGUACAGGUAGCAUAGUAUUUAGUUA	0.351 ± 0.026	0.00326 ± 0.0025
UCCAGGUACAGCUUGCAUAGUAUUUUCAAA	0.208 ± 0.036	0.00276 ± 0.0023
AGGUCCUACAGCUUGCAUAGUAUUUAGUAA	0.77 ± 0.055	0.0647 ± 0.012
UCCUGGAACAGCUUGCAAACUAUUUAGUUA	0.147 ± 0.017	0.00545 ± 0.0032
UCGACCUACAGCUUGCAAUCUAUUUAGUUA	0.227 ± 0.021	0.0028 ± 0.002
UCCUGGAACAGCUUCGCAUAGUAUUUAGUUA	0.887 ± 0.038	0.0143 ± 0.0043
UCCUGGAUGAGCUUGCAUAGUUAAUAGUUA	0.0126 ± 0.0049	0.00512 ± 0.0023
UCGACCUACAGCUUGCAUAGUAAAUAGUUA	0.749 ± 0.046	0.00874 ± 0.0022
UCCUGGAUCAGCUAGCAUAGUAUUUAGAUA	0.226 ± 0.026	0.00546 ± 0.0022
UCGACCUUCAGCUUGCUUAGUAUUUAGUUA	1.33 ± 0.05	0.0363 ± 0.0088
UCCUGGAACAGCUUGCAUAGUAUUUUCUAA	0.17 ± 0.044	0.00329 ± 0.0025
UCCUGGAUGAGCUUGCUUAGUAUUUAGUAA	0.299 ± 0.037	0.0129 ± 0.0034
UCCUGGAUGUGCUUGCAUAGUAUUAAGUUA	0.179 ± 0.021	0.0164 ± 0.0047
UCCUGGAUGUGCUUGCAUAGUAGUUUAGUUA	0.0105 ± 0.0051	0.00437 ± 0.0031
UCCUGGAUCAGCUAGCAUUGUAUUUAGUUA	0.213 ± 0.017	0.00673 ± 0.0032
UCCUGGAUCAGCUUGCAAAGUAUUUAGAUA	0.465 ± 0.036	0.0134 ± 0.0038
UCGACCUACAGCUUGCAUAGUAUUAUGUUA	0.434 ± 0.029	0.0214 ± 0.0048
